# Reference: PubChem BioAssay AID1466 (National Center for Advancing Translational Sciences (NCATS), 2008)
# The campaign covered roughly 200,000 compounds. About 10 (0.005%) were called active. This list was built around the results that the source calls inconclusive (neither active nor inactive); the mix of calls is not that of the screen. Calls follow the shape of the dose curve; as a rule, active = well fitted inhibition curve with a large enough effect; inconclusive = small, poorly fitted or top-dose-only effect, or effect the other way, or another doubt; inactive = no such curve, though single readings can be large or run the other way. Where the call is inconclusive, the potency comes from a doubtful curve fit.
# Molecular target: Lysosomal alpha-glucosidase (Homo sapiens) (UniProt P10253)
# Test: qHTS Assay for Inhibitors of Human alpha-Glucosidase as a Potential Chaperone Treatment of Pompe Disease;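 as to activity change, negative = inhibition: plate controls were uninhibited enzyme wells for no effect and no-enzyme background for full effect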
# Settings: purified human GAA, 4-MU-alpha-glucoside fluorescence; activity change, negative = inhibition: at 76.9 µM (top of the series) unless noted
# Outline: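 Read-out is 4-methylumbelliferone fluorescence (Ex 365/Em 440 nm) after NaOH/glycine stop at pH 10. Enzyme 4 nM, substrate 400 uM, pH 5.0 citrate buffer, 20 min room temperature; AC50 from Hill-equation concentration-response.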
# Potency is read from the fitted curve at half-maximal effect; tags tell the direction and shape of the fitted curve.
Compound,"activity change, negative = inhibition",Potency
Cc1[nH]n(-c2ccc(F)cc2)c(=O)c1/C=N/c1sc2c(c1C#N)CCCC2,inactive: 2.22%,
COc1cccc(C2=NOC(C(=O)Nc3ccccc3SC)C2)c1 (centres undefined),inconclusive: -20.3% [inhibitor],
COCCCNC(=O)C1CCCN(S(=O)(=O)c2ccc(C)cc2)C1 (centres undefined),,"inconclusive: 56.2 µM [inhibitor, single point]"
CC(=O)c1c(OC(=O)c2ccc(C)cc2)c2ccccc2n1C,,"inconclusive: 56.2 µM [inhibitor, single point]"
COc1ccc(Br)cc1S(=O)(=O)NNC(=O)c1c(C)nc2ccccn12,inactive: 5.74%,
O=C(N/N=C/c1ccncc1)c1ccc(NS(=O)(=O)c2cccs2)cc1,,"inconclusive: 25.1 µM [inhibitor, partial curve]"
Cc1occc1C(=O)Nc1cc(C(F)(F)F)ccc1Cl,inconclusive: -19.6% [inhibitor],
COC(=O)c1c(NC(=O)c2nn(C)cc2Cl)sc2c1CCCC2,,"inconclusive: 25.1 µM [activator, single point]"
N=c1oc2cc(O)ccc2cc1C(=O)Nc1ccccn1,,"inconclusive: 35.5 µM [activator, partial curve]"
COC(=O)Nc1nnc(-c2ccncc2)s1,,"inconclusive: 35.5 µM [activator, single point]"
CSc1ccc(C(=O)C2CCCN(C(=O)c3ccsc3)C2)cc1 (centres undefined),inconclusive: 16.9% [activator],
COc1ccc(C2CC(c3cccs3)=NN2S(C)(=O)=O)cc1OC (centres undefined),inconclusive: 16.4% [activator],
OCCCn1c(-c2ccccc2)csc1=Nc1ccccc1,,"inconclusive: 7.08 µM [inhibitor, single point]"
Cc1ccc(-c2nc(C=Nc3ccc(O)cc3)c(O)o2)cc1,,"inconclusive: 28.2 µM [inhibitor, single point]"
CCOC(=O)CCCSc1nc(-c2ccc3c(c2)OCO3)cc(C(F)(F)F)c1C#N,,"inconclusive: 2.24 µM [activator, full curve, poor fit]"
CCOC(=O)c1cc(-c2ccccc2)n(CC(=O)NC(C)(C)C)c1C,,"inconclusive: 11.2 µM [inhibitor, single point]"
COCCCNC(=O)c1c(N)n(/N=C/c2cccs2)c2nc3ccccc3nc12,,"inconclusive: 28.2 µM [activator, partial curve, poor fit]"
COc1ccc(C(=O)Oc2cccc(Nc3ncnc4ccccc34)c2)cc1OC,,"inconclusive: 2.82 µM [inhibitor, partial curve, poor fit]"
Cc1sc(NC(=O)C2C3CCC(O3)C2C(=O)O)nc1-c1ccc(CC(C)C)cc1 (centres undefined),,"inconclusive: 2.82 µM [inhibitor, full curve, poor fit]"
COC(=O)C1=C(C)N(c2cccc3ccccc23)C(=O)C1,inconclusive: -17.8% [inhibitor],
CCCCCCCC(=O)OC(CN1CCCCC1)CN1CCCC1=O (centres undefined),,"inconclusive: 50.1 µM [inhibitor, single point]"
O=C(NCCCO)c1ccc2nc(-c3ccco3)c(-c3ccco3)nc2c1,inactive: -3.69%,
Cc1nc(=O)c(-c2ccccc2)c(C)n1-c1ccc(S(N)(=O)=O)cc1,,"inconclusive: 56.2 µM [inhibitor, single point]"

Compound,"activity change, negative = inhibition",Potency
CCOC(=O)/C(C#N)=C\C=C1C=CN(C)C=C1,,"inconclusive: 56.2 µM [inhibitor, single point]"
COC(=O)c1sc(N2CCN(c3ccc(Cl)cc3)CC2)nc1N,inconclusive: -15.3% [inhibitor],
CCN=c1scc(C)n1/N=C/c1cc(Br)c(O)c(Br)c1,inactive: -5.31%,
CC(=O)Nc1ccc(S(=O)(=O)N2CCN(CCC#N)CC2)cc1,,"inconclusive: 3.55 µM [inhibitor, full curve]"
CCn1c(C)nc2cc(C(=O)N/N=C/c3cccc(OC)c3O)ccc21,,"inconclusive: 0.178 µM [inhibitor, full curve, poor fit]"
COc1ccc(C2c3[nH]c4ccccc4c3CCN2CCCn2cccn2)c(C)c1C (centres undefined),,"inconclusive: 20 µM [inhibitor, single point]"
CCCCCCC1(C)NC(=S)N(c2ccccc2)N1 (centres undefined),inactive: -3.99%,
O=C(CSc1ccccn1)N1CCN(c2cccc(Cl)c2)CC1,,"inconclusive: 56.2 µM [inhibitor, single point]"
O=C1c2nc3cc(-c4ccco4)[nH]n3c(=O)c2CN1C1CCCCC1,,"inconclusive: 28.2 µM [activator, partial curve]"
Cc1ccc(N=Nc2c(N)[nH]n3c(=O)cc(C)nc23)cc1,inconclusive: -18.6% [inhibitor],
CC1=C(C(=O)Nc2ccccn2)C(c2cn(C)nc2C)C2=C(CCCC2=O)N1 (centres undefined),,"inconclusive: 28.2 µM [activator, partial curve]"
Oc1[nH]c2ccccc2c1C=Nc1ccc2c(c1)OCCO2,inactive: -3.46%,
Cc1ccc(S(=O)(=O)CCC(=O)OC(C)C(=O)c2c(C)[nH]c3ccccc23)cc1 (centres undefined),,"inconclusive: 50.1 µM [inhibitor, single point]"
CCc1nnc(NC(=O)[C@@H](NC(=O)c2cccc(S(=O)(=O)N3CCOCC3)c2)C(C)C)s1,,"inconclusive: 56.2 µM [inhibitor, single point]"
COc1cc2c(cc1NC(=O)CN1CCN(S(=O)(=O)c3ccc(F)cc3)CC1)oc1ccccc12,,"inconclusive: 56.2 µM [inhibitor, single point]"
Cc1ccc2nc3c(c(N)c2c1)CCN3c1ccccc1,inconclusive: 30.4% [activator],
CCOCC(=O)Nc1c(C(=O)Nc2ccc(OC)cc2OC)oc2ccccc12,,"inconclusive: 50.1 µM [activator, single point]"
CCCCN(CCCC)CCCNC(=O)c1ccc2nc(-c3ccccc3NC(C)=O)c(=O)[nH]c2c1,inconclusive: 16.3% [activator],
CC1(C)CC(=O)c2cc(OCC(=O)O)ccc2O1,,"inconclusive: 31.6 µM [activator, single point]"
COc1ccccc1CCc1nnc(CCC(=O)NC(C)Cn2nc(C)cc2C)o1 (centres undefined),inconclusive: 15.4% [activator],
COc1cc(C(=O)NCc2nnc(SCC(=O)N3CCCc4ccccc43)o2)cc(OC)c1OC,,"inconclusive: 50.1 µM [inhibitor, single point]"
C/C(=N/NC(=O)c1ccccc1)C(=O)O,inconclusive: 25.7% [activator],
CC(=O)Oc1ccc2cc(-c3nc4ccccc4n3C)c(=O)oc2c1,,"inconclusive: 35.5 µM [activator, partial curve]"

Compound,"activity change, negative = inhibition",Potency
N#Cc1cc(C(=O)c2ccccc2OCC(=O)Nc2ccccc2Cl)cn(C2CCCCC2)c1=O,,"inconclusive: 2.51 µM [inhibitor, full curve]"
CCOC(=O)C1CCN(C(=O)C2(NC(=O)Nc3cccc(F)c3)CCCCC2)CC1,inactive: 5.94%,
CC1=CC(C)C2COC(c3ccc[n+](C)c3)C1C2C (centres undefined),,"inconclusive: 2.24 µM [inhibitor, full curve, poor fit]"
CCCC(=O)Nc1ccc(C(=O)n2ccc(C)n2)cc1,inconclusive: 11.9% [activator],
CNC(=S)Nc1ccc(Nc2ccccc2)cc1,inactive: 6.87%,
O=C(CCCCCn1c(=O)[nH]c2ccsc2c1=O)N1CCN(C2CCCCC2)CC1,,"inconclusive: 31.6 µM [inhibitor, single point]"
CCOC(=O)C1=C(CNC(C)(C)CC(C)(C)C)NC(=O)NC1c1cccc([N+](=O)[O-])c1 (centres undefined),,"inconclusive: 50.1 µM [inhibitor, single point]"
CN1C(=O)/C(=C/C=C2\SCCN2C)N(C)C1=S,inconclusive: -15.4% [inhibitor],
Nc1c2c(nc3ccccc13)N(c1ccccc1)CC2,,"inconclusive: 25.1 µM [activator, single point]"
O=c1oc2cc(O)ccc2c2oc3cc(O)ccc3c12,,"inconclusive: 31.6 µM [activator, single point]"
CC(C)c1nc(NCC2CCCO2)c(C#N)c2c1COC(C)(C)C2 (centres undefined),inconclusive: -15.5% [inhibitor],
Cc1cc(S(=O)(=O)N2CCN(c3c(C)cccc3C)CC2)ccc1F,,"inconclusive: 35.5 µM [inhibitor, single point]"
CCOC(=O)c1cc(C(C)=O)c(=O)[nH]c1C,,"inconclusive: 50.1 µM [inhibitor, single point]"
CN(C)c1ccc(N=Cc2ccco2)cc1,inactive: 3.14%,
Cc1ccsc1/C=N/Nc1nc(=O)[nH]nc1C,inactive: -12.7%,
O=C1CSC(c2cccs2)N1c1ccccc1 (centres undefined),inconclusive: -15.3% [inhibitor],
CCCCOc1ccc(Nc2nc(C)cc(C)c2C#N)cc1,,"inconclusive: 56.2 µM [activator, single point]"
COc1cc2c(cc1OC)C(c1ccncc1)CC(=O)N2 (centres undefined),,"inconclusive: 39.8 µM [inhibitor, single point]"
Nn1c(COc2ccc(Cl)cc2)nc2ccccc2c1=O,,"inconclusive: 50.1 µM [inhibitor, single point]"
COCCn1c(=O)[nH]c2cc(C(=O)Nc3cccc(F)c3)ccc2c1=O,,"inconclusive: 31.6 µM [activator, partial curve]"
OCc1cc(C(O)CNCCCCCCOCCCCc2ccccc2)ccc1O (centres undefined),inconclusive: -10.6% [inhibitor] [at 15.4 µM],
CCOC(=O)c1ccc(NC(=O)c2ccccc2[N+](=O)[O-])cc1,,"inconclusive: 56.2 µM [inhibitor, single point]"
COc1cc(OC)c(S(=O)(=O)N2CCCCC2)cc1S(=O)(=O)N1CCCCC1,,"inconclusive: 15.8 µM [inhibitor, partial curve, poor fit]"
